To fix the notation:
B1: LINE1-mini (parent)
chain: GGCAGAGCUCAACACAGCGUGGCAAAGUGGCUGUGGCUAGACUGCC

The source gives no read counts; variants with many changes may rest on few reads.

In the RNAGym collection of RNA variant scans (doi:10.7554/elife.90254) one finds self-cleavage data, which are given here for 167 variants.

Variants of B1 are the subject of this data set. In words: self-cleavage, relative activity (ratio to wild type); higher = more cleavage; in vitro, sequencing; the parent is a self-cleaving ribozyme.
Consider A16C A24U G40U, for which the self-cleavage is 0.03. The figure for G2U G22U C23A is 0.21; for A14G C18G G36A C37U it is 0.06. The figure for U20A C23U A24U is 2.06; for C3A A14U G40C it is 0.04. For the variant A11G G17U G36U, the self-cleavage was 0.02.

As to G1C U28C U38G G40A, the self-cleavage was 0.01.

In the case of C18A U34G A41G, the self-cleavage is 0.02. The figure for A4G G17C G40U is 0.08; for G5U A26G G33A it is 0.22. Take C3U A4C C13A A39G: the self-cleavage came to 0.17. The figure for C3G C18G G44C is 0.71; for A4G C23A U43G it is 0.

On to U9C G27A C37U, for which the self-cleavage came to 0.02. The figure for C18A A24C C45A is 0.04. The value for U9C C45U C46U was 0.01; that for U28A C37A A39G was 0.03; that for G2U C15A C37A A39U A41C was 0.06. For the variant G2C C8A G36A, the self-cleavage came to 0.07. The figure for G7C C23A C46A is 0.01; for U9G A12G G35U G36U it is 0.04; for C18U G21A U32G G40A it is 0.03. As for G1A G7C A11C, the self-cleavage was 0.03. The value for G2A A4C A26U U28G C46A was 0.08. The value for G7A A14C U20G C37U was 0.09.

Turning to G5U A6U G35U, the self-cleavage turned out to be 0.11. The figure for G19U G21A A24U is 0.82; for G19A G44U C45G it is 0.02; for C10A A16C G22C it is 0.08. The value for A25U U28G C37U U38C was 0.

As to C18A U38A A39U, the self-cleavage was 0.61. The figure for C8A C13U A14U C18U C45U is 0.23; for G2C G5C A41U it is 0.05. The figure for G1U G17C G22U is 1.28; for C8U A24U A39G it is 0.02. Take C15G A26C U32G C42G: the self-cleavage came to 0.01.

C3U G17A G21U G27C C45A: the self-cleavage was 0.04.

In the case of C8U C13U A41U, the self-cleavage is 0.23. Regarding G2A U9A A12U G30U G35U, the self-cleavage was found to be 0.06.

On to A4C A6G U9G G19U G21U U32C, for which the self-cleavage came out at 0.02. The figure for C18G G27U C45A is 0.2. On to G1U G5C G7A, for which the self-cleavage is 0.43. In the case of C13A C15A G29A C37A, the self-cleavage is 0.13. For G27C U34A C37G A39C, the self-cleavage was 0.03. The value for C15U U28A G29C C45U was 0.78; that for A11G C15A G19U U34G was 0.02; that for C3G G21U C45U was 0.07.

Turning to A25G U34A G40A, the self-cleavage amounted to 0.03. For A4C A6U C10U C13U A16G G29U C37A C46G, the self-cleavage came out at 0.04. The figure for G7A G17A C31A is 0.05; for G7A A11G G35A U38A it is 0.02; for G19C G27U U32C U38G A41G it is 0.01. The figure for G33U G36A C45G is 0.02. The value for G30A G35A G44U was 0.06. On to A16C A26C G35U G40C, for which the self-cleavage stood at 0. In the case of C8A C15U G22C G36C, the self-cleavage came out at 0.34. For A11U C23U G30U, the self-cleavage amounted to 0.05. The figure for C8A C10A A12C G36U is 0.06. The value for U9G A16C G40C C45U was 0.07.

Consider G2U U20A A24G C42U C45U, for which the self-cleavage was 0.01. The value for A24C G33C U34G G35A U43A C46U was 0.01. The value for C13U A16G A24C C42A was 0.1; that for C23A U32G C45A was 0.06.

For the variant G2C C13A G30U C37U, the self-cleavage was 0.46. The value for C8U A16C G17U was 0.03; that for C8U A14U G22C G33U G40A was 0.07. On to A6U G7A C15G G33U C37G, for which the self-cleavage came to 0.07. The value for A6G G30C G44A was 0.22; that for G2A G5A G29U was 1.44; that for G17C G21A A25C was 0.53. The figure for C13G A14G G22A is 0.04; for A4C G21A C37U U38G it is 0.02; for C3G G19C C37U it is 0.02. On to A16C A25U G29U, for which the self-cleavage is 0.41. With A4C G17C U28A, the self-cleavage is 0.04.

As to U9G A16C C31G C45A, the self-cleavage stood at 0.01. The figure for C13U A14C G33U G40A C46G is 0; for G2C G19A A26G it is 0.29; for G17A C18A U38C it is 0.08. The value for G17U A24G U32C was 0.01.

For the variant C10A G19A C42G, the self-cleavage worked out at 0.03. The figure for G27C G29A U38C A39G is 0.23; for A4G G36A U38G it is 0.05. For the variant G21U G22U C23G, the self-cleavage is 1.6.

For the variant A4G C8U A11G G22C, the self-cleavage came to 0.01. The figure for G1C G29U G36U is 0; for C8A U34A C45A it is 0.19. Take A11C G21U U28A U32G G36A: the self-cleavage was 0.01. The value for G27U C31G U32C was 0.18; that for G27A G36U G40C was 0.11; that for C10A C13A A16C was 0.04. For G19A U28G U32C, the self-cleavage stood at 0.08. On to A6G G7C G21C G35U A41U, for which the self-cleavage was 0.14. G22A G27C C45U: the self-cleavage was 0.17.

Take C31A U34A A41G: the self-cleavage turned out to be 0.07.

With G17A A25C G27U G33C A41U, the self-cleavage came to 0.25. For the variant A4U A6G U34A, the self-cleavage was found to be 0.22. The value for C3A A16U C18A G19C G36U was 0.49; that for C10G A12C C18G G33A was 0.01; that for A12C U20G G33A C45U was 0.01. The figure for G2U A11U U20C A26U U28A C31G is 0.01.

As for G7U C13U U28C U43C, the self-cleavage is 0.12. The value for C10A G33U G40U was 0.

G7C C10G G17A G29A: the self-cleavage is 0.1. The value for G2U U20C C37G C42A was 0.01; that for A6C C15A G17U was 0.02. The figure for G21A G40C C42U is 0.21; for U9A G30U A41C U43C it is 0.02. The figure for G7A C13U U28A is 0.05; for C18U G19A G29C it is 0.19; for A11U G33A A39G it is 0.01. In the case of C10A A11C G33C, the self-cleavage was determined as 0.01. The value for G2A C10U G17U G29C C37A was 0.03; that for G5C A16G U43A was 0.02; that for G2U A4U C31U U32C was 0.04. The value for G1U C13G G36A was 0.02; that for G7U A16U U38A G40C was 0; that for A6G C8A A14C A26U G33C C45A was 0.07.

Turning to C10A A14G U38A U43A, the self-cleavage was 0.03. The value for C8U U9C C13A G22U A39G C45A C46U was 0.02; that for U20A U34G C42U C45A was 0.03. Consider A24U C45A C46U, for which the self-cleavage stood at 0.17. The figure for C8A U9A C23G A25U C42G C46A is 0.79.

For the variant G21A G36C A39C, the self-cleavage is 0.07. Turning to G1A G7A A14C, the self-cleavage was determined as 0.12. The figure for G7A C10A G30C G36C is 0.03. The value for C10U A16U A39C was 0.05; that for G2A A16U U32G C46U was 0.76.

As to U9A G19U G29A G36C, the self-cleavage was 0. The value for G1C C3A A26G was 0.27; that for A14U G27A G30A U32G G35C was 0.05; that for G2A A4G G27A G29U G33C G44U C45A was 0.11. The value for A16U G21C C31U G40C was 0.05.

Take C10A G29C U34G G40U: the self-cleavage is 0.02. The figure for C15A A16C G22U G27U G35C is 0.03; for U9G G27A G30U it is 0.06; for G2A C13A G19U it is 0.05. The value for C15G A16C G27C was 0.03.

On to G2U G30C U32C U34A, for which the self-cleavage amounted to 0.02.

Turning to G2U C31A G33A C42G, the self-cleavage turned out to be 0.04. The figure for C3U G36U C45U is 0.07.

As for C8U C10A G17U A24G, the self-cleavage is 0.05. As for C8G G17U C46A, the self-cleavage is 0.02. The figure for C3U C37G U43C C45G is 0.13.

With G5A G7U G22C A25G C45U, the self-cleavage came to 0.03. Take G27C U32C G40C: the self-cleavage amounted to 0.1. The figure for C10G U20A G27U U34G is 0.02. The figure for G5C C10U U20G G22C U28C C42A is 0.01. As for G7C G36C C45A, the self-cleavage was 0.02. The value for A12G G17U G19A U20G A24U was 0.01; that for C15G G21A A25C G33U U34G was 0.01; that for G7A A25C G35C was 0.02. In the case of G5C C10U A16C U20A G36C C46U, the self-cleavage came out at 0.02.

For C3A C18U C37U, the self-cleavage is 0.32.

In the case of G5U A14G U32A C42A, the self-cleavage amounted to 0.02. For the variant A4C C8U G17A G36U G44A, the self-cleavage is 0.03. For the variant C8U U9A G21A U34C A41C U43C, the self-cleavage stood at 0.24. The figure for G2C G7C C10A A12G U28A is 0.02; for A16C C18U C37G C45A it is 0.02; for U9C A16G C18U G40C it is 0.04. For C8A A14U U32G G33C, the self-cleavage stood at 0.12. The value for C13A G33A G35C was 0.07; that for U32G A41G C46A was 0.03. The value for U9G C37A G44C was 0.13; that for G5C C23G A25C C37U C42U U43C G44A was 0.01; that for C31A G35C A39C was 0.02.

For G5A G33A U38A A39U, the self-cleavage stood at 0.05.
